Some of the results follow. Many values rest on one well or one pass, so single values are uncertain.
Columns and labels:
Assay in all cases: cell count relative to DMSO control; melanoma cells; higher = more viable cells
Settings in all cases: library dose: low library concentration; 72 h
[1] = tested on: COLO792
[2] = tested on: COLO800
[3] = tested on: COLO829
[4] = tested on: G361
[5] = tested on: IPC-298
[6] = tested on: IST-MEL1
[7] = tested on: LB2518-MEL
[8] = tested on: LOXIMVI
[9] = tested on: MEL-HO
[10] = tested on: MZ2-MEL
[11] = tested on: MeWo
[12] = tested on: RPMI7951
[13] = tested on: RVH-421
[14] = tested on: SkMel28
[15] = tested on: SkMel2
[16] = tested on: SkMel30
[17] = tested on: SkMel5
[18] = tested on: UACC257
[19] = tested on: UACC62
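Note: cell number obtained by counting DAPI-stained nuclei in high-throughput microscope images with image analysis software, screen run in 1,536-well plates.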

| SMILES | cell count [1] | cell count [2] | cell count [3] | cell count [4] | cell count [5] | cell count [6] | cell count [7] | cell count [8] | cell count [9] | cell count [10] | cell count [11] | cell count [12] | cell count [13] | cell count [14] | cell count [15] | cell count [16] | cell count [17] | cell count [18] | cell count [19] |
| --- | --- | --- | --- | --- | --- | --- | --- | --- | --- | --- | --- | --- | --- | --- | --- | --- | --- | --- | --- |
| CS(=O)(=O)c1ccc(C(=O)Nc2ccc(Cl)c(-c3ccccn3)c2)c(Cl)c1 [vismodegib] + O=C(Oc1ccc([N+](=O)[O-])cc1)N1CCC(C(O)(c2ccc3c(c2)OCO3)c2ccc3c(c2)OCO3)CC1 [JZL184] (first compound 1 µM, partner dose 1 µM) | 99.3% | 137% | 82.8% | 111% | 102% | 106% | 110% | 108% | 108% | 107% | 95.4% | 98.8% | 91.6% | 109% | 106% | 97% | 81.7% | 115% | 104% |
| O=c1[nH]nc(Sc2ncc([N+](=O)[O-])s2)n1-c1ccc2c(c1)OCCO2 + O=C(Oc1ccc([N+](=O)[O-])cc1)N1CCC(C(O)(c2ccc3c(c2)OCO3)c2ccc3c(c2)OCO3)CC1 [JZL184] (first compound 0.2 µM, partner dose 1 µM) | 105% | 149% | 77.8% | 79.2% | 100% | 104% | 109% | 73.9% | 127% | 97.6% | 99.1% | 103% | 112% | 99.1% | 90.9% | 91.7% | 98.9% | 106% | 97.4% |
| C[C@]1(O)C[C@@H](c2nc(-c3ccc4ccc(-c5ccccc5)nc4c3)c3c(N)nccn32)C1 + Cc1cc(SCc2sc(-c3ccc(C(F)(F)F)c(F)c3)nc2C)ccc1OCC(=O)O [GW0742] (first compound 0.4 µM, partner dose 2 µM) | 104% | 76.5% | 87.9% | 92.7% | 105% | 98.4% | 95.3% | 117% | 83.1% | 103% | 85.4% | 85.4% | 104% | 92.2% | 81.1% | 75.3% | 84% | 68.5% | 90.1% |
| C[C@@H](N)c1ccc(C(=O)Nc2ccnc3[nH]ccc23)cc1 + O=C(Oc1ccc([N+](=O)[O-])cc1)N1CCC(C(O)(c2ccc3c(c2)OCO3)c2ccc3c(c2)OCO3)CC1 [JZL184] (first compound 0.4 µM, partner dose 1 µM) | 81.3% | 165% | 91.6% | 86.3% | 103% | 91.9% | 99.6% | 87.9% | 65.5% | 76.3% | 93.6% | 59.2% | 61.6% | 75.9% | 98.3% | 109% | 74.8% | 75.7% | 78.8% |
| CCN(CC)CCNC(=O)c1c(C)[nH]c(/C=C2\C(=O)Nc3ccc(F)cc32)c1C [sunitinib] + O=C(Oc1ccc([N+](=O)[O-])cc1)N1CCC(C(O)(c2ccc3c(c2)OCO3)c2ccc3c(c2)OCO3)CC1 [JZL184] (first compound 0.4 µM, partner dose 1 µM) | 94.4% | 76.7% | 132% | 97.2% | 105% | 102% | 103% | 112% | 95.4% | 103% | 90.3% | 105% | 111% | 102% | 113% | 79.1% | 107% | 84.7% | 89.1% |
| C=CCNC1=C2C[C@@H](C)C[C@H](OC)[C@H](O)[C@@H](C)/C=C(\C)[C@H](OC(N)=O)[C@@H](OC)/C=C\C=C(/C)C(=O)NC(=CC1=O)C2=O [Tanespimycin] + C/C(O)=C(\C#N)C(=O)Nc1cc(Br)ccc1Br [LFM-A13] (first compound 0.002 µM, partner dose 2 µM) | 103% | 75.1% | 97.6% | 93.7% | 105% | 95.2% | 102% | 79.1% | 105% | 95.5% | 103% | 94.9% | 75.1% | 101% | 99.7% | 105% | 101% | 86.6% | 107% |
| Cc1ccc(Nc2nccc(N(C)c3ccc4c(C)n(C)nc4c3)n2)cc1S(N)(=O)=O [Pazopanib] + Cc1cc(SCc2sc(-c3ccc(C(F)(F)F)c(F)c3)nc2C)ccc1OCC(=O)O [GW0742] (first compound 0.4 µM, partner dose 2 µM) | 102% | 109% | 106% | 97.5% | 84% | 102% | 101% | 99.2% | 89% | 74.3% | 98.9% | 87.8% | 97.1% | 98.3% | 95.5% | 91.6% | 76% | 97.5% | 99.9% |
| C[C@]1(O)C[C@@H](c2nc(-c3ccc4ccc(-c5ccccc5)nc4c3)c3c(N)nccn32)C1 + C/C(O)=C(\C#N)C(=O)Nc1cc(Br)ccc1Br [LFM-A13] (first compound 0.4 µM, partner dose 2 µM) | 85.7% | 31% | 84.5% | 80.5% | 88.1% | 93.9% | 86.1% | 95.1% | 98.9% | 94.7% | 91.5% | 93.5% | 105% | 69.5% | 73.3% | 75.4% | 90.1% | 74% | 70.3% |
| NC1(c2ccc(-c3nc4ccn5c(=O)[nH]nc5c4cc3-c3ccccc3)cc2)CCC1 + C/C(O)=C(\C#N)C(=O)Nc1cc(Br)ccc1Br [LFM-A13] (first compound 0.4 µM, partner dose 2 µM) | 59.9% | 106% | 92.6% | 82% | 102% | 99.3% | 94.2% | 113% | 79.3% | 106% | 96% | 100% | 90.5% | 49.1% | 86.5% | 64.5% | 101% | 90% | 77.4% |
| C[C@]1(O)C[C@@H](c2nc(-c3ccc4ccc(-c5ccccc5)nc4c3)c3c(N)nccn32)C1 + O=C(Oc1ccc([N+](=O)[O-])cc1)N1CCC(C(O)(c2ccc3c(c2)OCO3)c2ccc3c(c2)OCO3)CC1 [JZL184] (first compound 0.4 µM, partner dose 1 µM) | 93.7% | 59.2% | 92.2% | 82% | 93.1% | 111% | 100% | 57.7% | 96.6% | 94.9% | 100% | 99.4% | 115% | 109% | 98.2% | 95.3% | 86% | 93.8% | 75.8% |
| CC(=O)c1c(C)c2cnc(Nc3ccc(N4CCNCC4)cn3)nc2n(C2CCCC2)c1=O [palbociclib] + C/C(O)=C(\C#N)C(=O)Nc1cc(Br)ccc1Br [LFM-A13] (first compound 0.04 µM, partner dose 2 µM) | 57.7% | 84.1% | 78.1% | 73.1% | 81.1% | 84.5% | 90.3% | 73.6% | 94.2% | 74.3% | 80.5% | 60% | 73.3% | 64.7% | 74.7% | 75.1% | 68.5% | 50.2% | 60.3% |
| Nc1ncn([C@H]2C[C@H](O)[C@@H](CO)O2)c(=O)n1 [decitabine] + O=C(Oc1ccc([N+](=O)[O-])cc1)N1CCC(C(O)(c2ccc3c(c2)OCO3)c2ccc3c(c2)OCO3)CC1 [JZL184] (first compound 0.1 µM, partner dose 1 µM) | 86.8% | 141% | 93% | 94.8% | 63.5% | 95.1% | 93.2% | 70.4% | 70.2% | 93.2% | 103% | 75.8% | 62.3% | 75.9% | 102% | 73.8% | 84.8% | 98% | 74% |
| CC1(C)CCC(c2ccc(Cl)cc2)=C(CN2CCN(c3ccc(C(=O)NS(=O)(=O)c4ccc(N[C@H](CCN5CCOCC5)CSc5ccccc5)c(S(=O)(=O)C(F)(F)F)c4)cc3)CC2)C1 + Cc1cc(SCc2sc(-c3ccc(C(F)(F)F)c(F)c3)nc2C)ccc1OCC(=O)O [GW0742] (first compound 0.4 µM, partner dose 2 µM) | 53.8% | 71% | 106% | 94.9% | 99.6% | 77.2% | 82.1% | 52.7% | 72.3% | 97% | 66.9% | 60.6% | 94% | 102% | 88.9% | 69.5% | 74.4% | 112% | 114% |
| Cc1cc(Nc2cc(N3CCN(C)CC3)nc(/C=C/c3ccccc3)n2)n[nH]1 + C/C(O)=C(\C#N)C(=O)Nc1cc(Br)ccc1Br [LFM-A13] (first compound 0.04 µM, partner dose 2 µM) | 89.7% | 99.4% | 81.5% | 85.9% | 103% | 102% | 81.1% | 63.1% | 93% | 98.2% | 97.9% | 107% | 87% | 89.7% | 113% | 74.5% | 93.1% | 87.8% | 80.7% |
| CS(=O)(=O)c1ccc(C(=O)Nc2ccc(Cl)c(-c3ccccn3)c2)c(Cl)c1 [vismodegib] + C/C(O)=C(\C#N)C(=O)Nc1cc(Br)ccc1Br [LFM-A13] (first compound 1 µM, partner dose 2 µM) | 99.7% | 103% | 103% | 100% | 106% | 97.7% | 107% | 57% | 98.2% | 107% | 104% | 82.9% | 104% | 135% | 101% | 85.8% | 111% | 90.2% | 98.7% |
| CS(=O)(=O)CCNCc1ccc(-c2ccc3ncnc(Nc4ccc(OCc5cccc(F)c5)c(Cl)c4)c3c2)o1 [lapatinib] + Cc1cc(SCc2sc(-c3ccc(C(F)(F)F)c(F)c3)nc2C)ccc1OCC(=O)O [GW0742] (first compound 0.8 µM, partner dose 2 µM) | 82.9% | 81.2% | 105% | 108% | 103% | 87.8% | 129% | 111% | 99% | 96.9% | 107% | 115% | 98.9% | 99.5% | 94.8% | 111% | 105% | 95.2% | 91.5% |
